Experimental data taken from PubChem BioAssay (NCATS).
Values joined by “and” are separate entries in the source; they are usually repeats but may differ in a detail not shown here. Equal entries are not always repeated. The shares of active, inactive and inconclusive entries below differ from those in the screen. For some of these results: Where the call is inconclusive, the potency comes from a doubtful curve fit. Active and inactive are the calls of the source. Calls come from the whole dose curve; as a rule, active = well fitted curve in the direction sought with a large enough effect; inconclusive = small, poorly fitted or top-dose-only effect, or another doubt; inactive = no such curve, though single readings can be large; an effect the other way counts as inactive or inconclusive.

Experiments:
KB-3-1 = assay: Cytotoxic Profiling of Annotated Libraries Using Quantitative High-Throughput Screening (AID 1296008); conditions: Five cell lines viability, CellTiter-Glo ATP luminescence, 48-72 h; max response: stronger effect = lower value; note: nearly all actives have a fitted effect of over 60% in size
In short: (§1)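 Cells exposed to compounds for 48 or 72 hr at 37 degrees Celsius. Viability read as ATP-coupled luminescence with CellTiter-Glo after 10 min at room temperature.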

NIH3T3 = assay: as above; conditions: Five cell lines viability, CellTiter-Glo ATP luminescence, 48-72 h; max response: stronger effect = lower value
In short: as §1

MCC-26 = assay: qHTS assay to identify novel small-molecules to repurpose for Merkel cell carcinoma treatment (AID 1296009); conditions: MCC and control cell lines, CellTiter-Glo viability, 72 h; series mostly up to 46 µM; note: nearly all actives have a fitted effect of over 60% in size
In short: (§2)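 Cells were incubated with compound for 72 hr at 37 degree celsius before CellTiter-Glo addition. Luminescence was normalized with no-cell wells as full cytotoxicity and DMSO as baseline.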

UISO = assay: as above; conditions: MCC and control cell lines, CellTiter-Glo viability, 72 h; series mostly up to 46 µM
In short: as §2

CAOV3 = assay: Primary qHTS to identify gynecologic anti-cancer compounds using libraries of approved drugs and bioactive compounds (AID 1345084); conditions: Gynecologic cancer cell panel viability, ATPlite luminescence, 48 h; series mostly up to 57.5 µM; note: nearly all actives have a fitted effect of over 55% in size
In short: (§3)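 Cells, 1,000 per well, were allowed to settle for 16 h at 37 C before compound addition. Five concentrations were tested for 48 h, and viability was read by ATPlite luminescence after 15 min at room temperature.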

WaGa = assay: qHTS assay to identify novel small-molecules to repurpose for Merkel cell carcinoma treatment (AID 1296009); conditions: MCC and control cell lines, CellTiter-Glo viability, 72 h; series mostly up to 46 µM; note: nearly all actives have a fitted effect of over 60% in size
In short: as §2

C33A = assay: Primary qHTS to identify gynecologic anti-cancer compounds using libraries of approved drugs and bioactive compounds (AID 1345084); conditions: Gynecologic cancer cell panel viability, ATPlite luminescence, 48 h; series mostly up to 57.5 µM; note: nearly all actives have a fitted effect of over 55% in size
In short: as §3
Potency is the fitted concentration of half-maximal effect; tags give direction and shape of the fitted curve.

Row | SMILES | Potency (KB-3-1) | Potency (NIH3T3) | Potency (MCC-26) | Potency (UISO) | Potency (CAOV3) | Potency (WaGa) | Potency (C33A)
1 | Cn1cnc(-c2cc3nccc(Oc4ccc(NC(=S)NC(=O)Cc5ccccc5)cc4F)c3s2)c1 | inconclusive: 23.1 µM [inhibitor, single point] | active: 11.8 µM and active: 13 µM | inconclusive: 18.7 µM [inhibitor, partial curve] | active: 18.7 µM | inconclusive: 31.6 µM [cytotoxic, partial curve, poor fit] | – | –
2 | CNC1CCC(N(Cc2cccc(-c3ccncc3)c2)C(=O)c2sc3ccccc3c2Cl)CC1 (stereo unspecified) | inconclusive: 29.6 µM [inhibitor, single point] and inconclusive: 23.1 µM [inhibitor, single point] | inconclusive: 29.1 µM [inhibitor, single point] | – | – | inconclusive: 31.6 µM [cytotoxic, single point] | inconclusive: 26.4 µM [inhibitor, single point] | inconclusive: 35.5 µM [cytotoxic, single point]
3 | COc1cc2c(Nc3ccc(NC(=O)c4ccccc4)cc3)ncnc2cc1OCCCN1CCOCC1 | inconclusive: 1.16 µM [inhibitor, full curve, poor fit] | inconclusive: 11.8 µM [inhibitor, full curve] and active: 14.6 µM | – | inactive | inconclusive: 8.91 µM [cytotoxic, partial curve, poor fit] | inconclusive: 3.32 µM [inhibitor, full curve] | active: 25.1 µM
